# Measured values reported in the supplement of paper PMC12645437, “Orthogonal IMiD-Degron Pairs Induce Selective Protein Degradation in Cells” (ACS Chemical Biology, 2025).
# Some of the results follow.
# Target: no compound (DMSO)
# Test: log2 fold change of degron read counts, EGFP-low vs EGFP+ sorted cells; higher = lower degron-EGFP level without compound (poor expression or instability)
# Conditions: compound: DMSO control; 18 h
# 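Further: jurkat cells carrying a lentiviral library of mutant zinc finger degrons fused to EGFP plus mCherry, mCherry+ cells FACS sorted, degron abundance counted by next-generation sequencing.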
row,Sequence,log2 fold change of degron read counts
1,FHCPVCGAQFTQKGNLLRHIKL,-0.471
2,FECEICGRVFTQKGNLLRHIKL,-1.18
3,FNCDVCGAWFTQKGNLLRHIKL,-0.823
4,FYCNICGASFTQKGNLLRHIKL,-0.587
5,LQCNQCGFPCTQKGNLLRHIKL,0.189
6,FCCEVCGAQFTQKGNLLRHIKL,-1.93
7,FLCPICGRDFTQKGNLLRHIKL,-0.61
8,FFCEQCGAQFTQKGNLLRHIKL,-1.53
9,FICPICGAAFTQKGNLLRHIKL,-0.039
10,FFCPICGHAFTQKGNLLRHIKL,0.466
11,FSCEVCGAYFTQKGNLLRHIKL,-0.676
12,FGCEICGHLFTQKGNLLRHIKL,0.0413
13,FKCNQCGRHFTQKGNLLRHIKL,-0.18
14,FECEICGHVFTQKGNLLRHIKL,-2.24
15,FICDQCGASFTQKGNLLRHIKL,-2.2
16,LECNQCGFLCTQKGNLLRHIKL,0.741
17,FKCPICGAFFTQKGNLLRHIKL,-0.0914
18,FECPQCGATFTQKGNLLRHIKL,-1
19,FACPICGHHFTQKGNLLRHIKL,-0.338
20,FYCPICGAEFTQKGNLLRHIKL,-0.0356
21,FECNVCGAAFTQKGNLLRHIKL,-2.02
22,FACEQCGATFTQKGNLLRHIKL,-2.15
23,FSCEICGADFTQKGNLLRHIKL,-2.25
24,FKCPQCGALFTQKGNLLRHIKL,-0.493
25,FSCNQCGHDFTQKGNLLRHIKL,-0.62

row,Sequence,log2 fold change of degron read counts
1,FKCNQCGRGFTQKGNLLRHIKL,-0.496
2,FVCNQCGHFFTQKGNLLRHIKL,0.00673
3,FACNICGATFTQKGNLLRHIKL,-0.832
4,FYCPVCGADFTQKGNLLRHIKL,-0.148
5,FMCEICGAAFTQKGNLLRHIKL,-1.79
6,FHCDVCGAHFTQKGNLLRHIKL,-1.58
7,FGCNQCGRRFTQKGNLLRHIKL,-0.0401
8,FACEICGRYFTQKGNLLRHIKL,-0.432
9,LSCNQCGFECTQKGNLLRHIKL,-0.439
10,FYCEICGRCFTQKGNLLRHIKL,-0.889
11,LMCPICGFWCTQKGNLLRHIKL,1.71
12,FFCPVCGAHFTQKGNLLRHIKL,-0.185
13,FWCEICGHEFTQKGNLLRHIKL,-1.02
14,FCCDICGALFTQKGNLLRHIKL,-0.806
15,FQCNQCGACFTQKGNLLRHIKL,-0.0366
16,FVCEICGASFTQKGNLLRHIKL,-1.31
17,FHCDQCGADFTQKGNLLRHIKL,-0.914
18,FFCEICGAFFTQKGNLLRHIKL,-0.342
19,FACPICGREFTQKGNLLRHIKL,-0.313
20,FQCEICGACFTQKGNLLRHIKL,-1.98
21,FDCPVCGAMFTQKGNLLRHIKL,-0.527
22,FCCPVCGAFFTQKGNLLRHIKL,0.842
23,FKCNQCGHKFTQKGNLLRHIKL,-0.998
24,FHCSVCGHVFTQKGNLLRHIKL,-0.26
25,FKCNICGADFTQKGNLLRHIKL,-0.682
